{"source": "the supplement of paper PMC6135742", "note": "Counter-ions that a name gives are not always drawn. ± gives the standard deviation of the averaged measurements. Whole data set: some 2,600 compounds, median “MBP+ mature oligodendrocyte number relative to DMSO vehicle control” near -0.34, cut for the highest 2% near 13. The list shows a part of the results.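 Further: 10 µM single dose with 3-day oligodendrocyte differentiation.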"}
{"system": "jimpy (Plp1 jimpy) mouse iPSC-derived oligodendrocyte progenitor cells", "test": "MBP+ mature oligodendrocyte number relative to DMSO vehicle control (SDs above negative control mean); higher = more surviving jimpy oligodendrocytes (rescue)", "settings": "10 µM; 3 days"}
{"smiles": "O=c1ncn2nc(Sc3ccc(F)cc3F)ccc2c1-c1c(Cl)cccc1Cl", "MBP+ mature oligodendrocyte number": 3.08}
{"smiles": "CC(C)Cc1ccc([C@H](C)C(=O)O)cc1", "note": "[S(+)-Ibuprofen]", "MBP+ mature oligodendrocyte number": -0.363}
{"smiles": "Cc1cncc(CN2CCC(=C3c4ccc(Cl)cc4CCc4cccnc43)CC2)c1", "note": "[Rupatadine Fumarate]", "MBP+ mature oligodendrocyte number": "< -6.01"}
{"smiles": "CS(=O)(=O)c1ccc([C@@H](O)[C@@H](CO)NC(=O)C(Cl)Cl)cc1", "note": "[Thiamphenicol]", "MBP+ mature oligodendrocyte number": 2.41}
{"smiles": "O=C(O)Cc1ccccc1Nc1c(Cl)cccc1Cl", "note": "[Diclofenac Sodium]", "MBP+ mature oligodendrocyte number": -0.647}
{"smiles": "O=C(O)Cc1ccccc1Nc1c(Cl)cccc1Cl", "note": "[Diclofenac sodium]", "MBP+ mature oligodendrocyte number": -0.701}
{"smiles": "O=C(O)Cc1ccccc1Nc1c(Cl)cccc1Cl", "note": "[Diclofenac Potassium]", "MBP+ mature oligodendrocyte number": 1.69}
{"smiles": "O=C(O)Cc1ccccc1Nc1c(Cl)cccc1Cl", "note": "[Diclofenac Diethylamine]", "MBP+ mature oligodendrocyte number": 0.501}
{"smiles": "C[C@@H](c1ncncc1F)[C@](O)(Cn1cncn1)c1ccc(F)cc1F", "note": "[Voriconazole]", "MBP+ mature oligodendrocyte number": "1.56 ± 3.4"}
{"smiles": "C[C@@H]1CC(=O)NN=C1c1ccc(NN=C(C#N)C#N)cc1", "note": "[Levosimendan]", "MBP+ mature oligodendrocyte number": -0.332}
{"smiles": "NCCOc1cc(C(=O)Nc2cc(OCCN)c3ccccc3n2)nc(C(=O)Nc2cc(OCCN)c3ccccc3n2)c1", "note": "[Pyridostatin trifluoroacetate salt]", "MBP+ mature oligodendrocyte number": -3.78}
{"smiles": "CO/N=C(\\C(=O)N[C@@H]1C(=O)N2C(C(=O)O)=C(CSc3nc(=O)c(O)nn3C)CS[C@H]12)c1csc(N)n1", "note": "[Ceftriaxone sodium]", "MBP+ mature oligodendrocyte number": 0.0385}
{"smiles": "Oc1ccccc1O", "note": "[Pyrocatechol]", "MBP+ mature oligodendrocyte number": "< -3.34"}
{"smiles": "COc1cc(OC)c2c(=O)[nH]c(-c3cc(C)c(OCCO)c(C)c3)nc2c1", "MBP+ mature oligodendrocyte number": 3.45}
{"smiles": "COc1cccc(NC(=O)/C=C/c2ccc(Cl)cc2)c1", "MBP+ mature oligodendrocyte number": "< -3.85"}
{"smiles": "FC(F)(F)c1ccccc1-n1ccnc1", "note": "[1-[2-(Trifluoromethyl)phenyl]imidazole]", "MBP+ mature oligodendrocyte number": -0.176}
{"smiles": "O=C(c1cccc(Cl)c1F)N1CCN(Cc2cccc(Nc3nccs3)n2)CC1", "MBP+ mature oligodendrocyte number": 3.62}
{"smiles": "COc1ccc(CCN(C)CCCC(C#N)(c2cc(OC)c(OC)c(OC)c2)C(C)C)cc1OC", "note": "(racemic) [(±)-Methoxyverapamil hydrochloride]", "MBP+ mature oligodendrocyte number": -1.77}
{"smiles": "CC(C)[C@H]1C(=O)N[C@@H](CCCNC(=N)N)C(=O)NCC(=O)N[C@@H](CC(=O)O)C(=O)N[C@H](Cc2ccccc2)C(=O)N1C", "note": "[Cilengitide]", "MBP+ mature oligodendrocyte number": 0.153}
{"smiles": "Cc1cc2nc(NCCCO)n(CC(=O)c3cc(C(C)(C)C)c(O)c(C(C)(C)C)c3)c2cc1C", "MBP+ mature oligodendrocyte number": -4}
{"smiles": "CC(C)(C)NC[C@H](O)COc1nsnc1N1CCOCC1", "note": "[Timolol Maleate]", "MBP+ mature oligodendrocyte number": -1.45}
{"smiles": "CC(C)(C)NC[C@H](O)COc1nsnc1N1CCOCC1", "note": "[S(-)-Timolol maleate]", "MBP+ mature oligodendrocyte number": -0.176}
{"smiles": "Cc1ccc(C(=O)Nc2ccc(CN3CCN(C)CC3)c(C(F)(F)F)c2)cc1C#Cc1cnc2cccnn12", "MBP+ mature oligodendrocyte number": "< -5.15"}
{"smiles": "O=C(Nc1cccc2c(=O)cc(-c3nnn[nH]3)oc12)c1ccc(OCCCCc2ccccc2)cc1", "note": "[Pranlukast]", "MBP+ mature oligodendrocyte number": -1.1}
{"smiles": "c1ccc2c(c1)CCC[C@H]2Nc1nc2ccccc2[nH]1", "note": "[NS8593 hydrochloride]", "MBP+ mature oligodendrocyte number": -0.125}
{"smiles": "Cn1c(=O)c(-c2c(Cl)cccc2Cl)cc2cnc(Nc3ccc(N4CCOCC4)cc3)nc21", "MBP+ mature oligodendrocyte number": "< -3.85"}
{"smiles": "O=C(Nc1c[nH]nc1-c1nc2ccc(CN3CCOCC3)cc2[nH]1)NC1CC1", "MBP+ mature oligodendrocyte number": "< -6.7"}
{"smiles": "CCOC(=O)[C@H](CCc1ccccc1)N[C@H]1CCc2ccccc2N(CC(=O)O)C1=O", "note": "[Benazepril HCl]", "MBP+ mature oligodendrocyte number": 2.12}
{"smiles": "O=C1CCC(c2ccc(-n3ccnc3)cc2)=NN1", "note": "[Imazodan]", "MBP+ mature oligodendrocyte number": 0.607}
{"smiles": "C=CCN1CCc2cc(O)c(O)cc2C(c2ccccc2)C1", "note": "(racemic)", "MBP+ mature oligodendrocyte number": -0.854}
{"smiles": "COC1=C(OC)C(=O)C(CCCCCCCCCCO)=C(C)C1=O", "note": "[Idebenone]", "MBP+ mature oligodendrocyte number": 11}
{"smiles": "Fc1ccc(C(OCCCc2cnc[nH]2)c2ccc(F)cc2)cc1", "MBP+ mature oligodendrocyte number": 0.696}
{"smiles": "NCC(O)c1ccc(O)c(O)c1", "note": "(racemic) [(±)-Norepinephrine (+)bitartrate]", "MBP+ mature oligodendrocyte number": -0.394}
{"smiles": "NC(CCCP(=O)(O)O)C(=O)O", "note": "(racemic) [(±)-2-Amino-5-phosphonopentanoic acid]", "MBP+ mature oligodendrocyte number": -0.747}
{"smiles": "CC(=O)Nc1cccc2c1c(Sc1ccc(Cl)cc1)c(C)n2CC(=O)O", "MBP+ mature oligodendrocyte number": 4.29}
{"smiles": "CC(COc1ccccc1)N(CCCl)Cc1ccccc1", "note": "(stereo not drawn) [Phenoxybenzamine HCl]", "MBP+ mature oligodendrocyte number": 4.26}
{"smiles": "Nc1ncn([C@@H]2O[C@H](CO)[C@@H](O)[C@H]2O)c(=O)n1", "note": "[5-azacytidine]", "MBP+ mature oligodendrocyte number": -1.06}
{"smiles": "Nc1ncn([C@@H]2O[C@H](CO)[C@@H](O)[C@H]2O)c(=O)n1", "note": "[Azacitidine]", "MBP+ mature oligodendrocyte number": 0.613}
{"smiles": "CCCNC(C)C(=O)Nc1ccccc1C", "note": "(stereo not drawn) [Prilocaine]", "MBP+ mature oligodendrocyte number": 0.343}
{"smiles": "CCCNC(C)C(=O)Nc1ccccc1C", "note": "(stereo not drawn) [Prilocaine hydrochloride]", "MBP+ mature oligodendrocyte number": -0.176}
{"smiles": "COc1ccc(CN(CCN(C)C)c2ccccn2)cc1", "note": "[Pyrilamine maleate]", "MBP+ mature oligodendrocyte number": -1.19}
{"smiles": "COc1cc(/C=C/C(=O)N2CCN(CC(=O)N3CCCC3)CC2)cc(OC)c1OC", "note": "[Cinepazide maleate]", "MBP+ mature oligodendrocyte number": 2.64}
{"smiles": "CCCCCCCCCCCCCCCCCCOP(=O)([O-])OC1CC[N+](C)(C)CC1", "note": "[Perifosine]", "MBP+ mature oligodendrocyte number": -0.323}
{"smiles": "O=C(Nc1ccc(OC(F)(F)F)cc1)c1sccc1NCc1ccnc2ccccc12", "MBP+ mature oligodendrocyte number": 7.18}
{"smiles": "CC(=O)c1ccc(S(=O)(=O)NC(=O)NC2CCCCC2)cc1", "note": "[Acetohexamide]", "MBP+ mature oligodendrocyte number": 0.47}
{"smiles": "CCSC(=N)N", "note": "[S-Ethylisothiourea hydrobromide]", "MBP+ mature oligodendrocyte number": 0.241}
{"smiles": "CCOC(=O)c1ccc(OC(=O)CCCCCNC(=N)N)cc1", "note": "[Gabexate Mesylate]", "MBP+ mature oligodendrocyte number": 1.12}
{"smiles": "OC[C@H]1O[C@H]([S-])[C@H](O)[C@@H](O)[C@@H]1O.[Au+]", "note": "[Aurothioglucose]", "MBP+ mature oligodendrocyte number": -1.73}
{"smiles": "CC(C)(C)Cn1c(N)nc2ccc(-c3[nH]c(C(C)(C)C)nc3-c3ccc(F)cc3)nc21", "MBP+ mature oligodendrocyte number": -4.16}
{"smiles": "CCCN[C@H]1CCc2nc(N)sc2C1", "note": "[Pramipexole dihydrochloride]", "MBP+ mature oligodendrocyte number": 1.22}
{"smiles": "CCCN[C@H]1CCc2nc(N)sc2C1", "note": "[Pramipexole]", "MBP+ mature oligodendrocyte number": 1.18}
{"smiles": "CCC(=O)N1CCN(C(=O)c2ccccc2)CC1", "MBP+ mature oligodendrocyte number": -0.125}
{"smiles": "CNC(=O)c1cc2c(cn1)[nH]c1ccccc12", "note": "[N-Methyl-beta-carboline-3-carboxamide]", "MBP+ mature oligodendrocyte number": 2.18}
